We go through 22 molecules from article PMC12136788.

T1: UNK ZnF1-6 (called full-length) (human, UniProt Q9C0B0 30-357)
T1 sequence: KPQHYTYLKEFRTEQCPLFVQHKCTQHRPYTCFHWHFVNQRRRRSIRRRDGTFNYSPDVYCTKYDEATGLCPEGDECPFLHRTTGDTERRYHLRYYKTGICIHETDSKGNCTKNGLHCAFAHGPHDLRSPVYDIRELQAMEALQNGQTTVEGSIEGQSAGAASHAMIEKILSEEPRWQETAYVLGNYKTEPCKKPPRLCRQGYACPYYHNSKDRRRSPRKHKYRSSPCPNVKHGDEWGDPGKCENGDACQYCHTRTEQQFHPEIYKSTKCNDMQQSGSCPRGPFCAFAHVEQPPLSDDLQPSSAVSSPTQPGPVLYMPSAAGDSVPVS

B1: chr10:63214216:63214317:-|CDS|ENSG00000171988|unk|FALSE|unique (ssRNA)
RNA: GGGAGUUCUACAGUCCGACGAUCUAAGCUGCAUAAGCGAAGUCCACCUCCAGAGACUAUAAAAUCUAAACUUAAUACUUCAGUAGAUACUCACAAGAUAAAAUCCAGCCCAUCACCUGAAGUUGUUAAACCCAAAAUAACUCACAACAGAGGAUUGAGCAUCA
B2: chr1:202941098:202941199:-|3pUTR|ENSG00000159346|msi1_unk|total|mutant (ssRNA)
RNA: GGGAGUUCUACAGUCCGACGAUCCCUCCCUUACCCCCAUCCUUAACUUUGUAUCCUGGCUUAUAACAGGCCAUCCAUUUUUGCCGCACACUUUUCAAAAACAAUUAUAUACCCUGGUCCCAUCUUUCCCGGGCCUGGAUCUGCCAACAGAGGAUUGAGCAUCA
B3: chr5:138511037:138511180:-|CDS|ENSG00000120705|unk|FALSE|unique (ssRNA)
RNA: GGGAGUUCUACAGUCCGACGAUCCACGGGCAAGUACUGUUUUGGCGUUGAAGAUACACUAAAGGCUUUGGAAAUGGGAGCUGUAGAAAUUCUAAUAGUCUAUGAAAAUCUGGAUAUAAUGAGAUAUGUUCUUCAUUGCCAAGGCAACAGAGGAUUGAGCAUCA
B4: chr10:92030311:92030412:+|3pUTR|ENSG00000095564|unk|FALSE|unique (ssRNA)
RNA: GGGAGUUCUACAGUCCGACGAUCAUAUAAGAUUGAAACUGUAAAAUAUAUGCAACUGUGUGUUAUUUGUAGGAAAUGGUCACUAGAAAGAGCAAAAGAUUAUUCAGGUAUACAGGUUUUUUUUCAUUGUUUAGGAUUUUAACUCAACAGAGGAUUGAGCAUCA
B5: chr3:115809552:115809653:-|3pUTR|ENSG00000185565|unk|total|mutant (ssRNA)
RNA: GGGAGUUCUACAGUCCGACGAUCCUCCCUCACCUCUCCUCACCUCCACCCCCUCCCCAGAGCACCCGUCAUGCCGCAAAUGCCCGGAAGUGCCAUUUUCAUUUUCUCCACUGUGCGUGUGUGCUCAAGUCUUUCGCUCUCACGCAACAGAGGAUUGAGCAUCA
B6: chr20:57607060:57607300:-|CDS|ENSG00000124256|control|control|control (ssRNA)
RNA: GGGAGUUCUACAGUCCGACGAUCCCUGUGAAUGUUGAUAGUUUGACCUCCUCCCAUGAAUCACAAAUGUUCUUAACGGCAUGUAGAUUGGUGAUCUUUUCCAGAAGAUUUUCAACUUACUUUGCCCAGAUCCAUCUGAGGAAUCAACAGAGGAUUGAGCAUCA
B7: chr5:76617584:76618642:-|CDS|ENSG00000164220|control|control|control (ssRNA)
RNA: GGGAGUUCUACAGUCCGACGAUCUGAUGGCUUAUAUUUUAUAUAUCUCAUAGCUUUGUGCCUGGGUAGUCUUAAUAGUUGCUUAGAUCCAUUCCUUUAUUUUCUCAUGUCAAAAACCAGAAAUCACUCCACUGCUUACCUUACCAACAGAGGAUUGAGCAUCA
B8: chr4:86814747:86814848:+|3pUTR|ENSG00000163629|unk|total|mutant (ssRNA)
RNA: GGGAGUUCUACAGUCCGACGAUCUACUUUAACCUAUGAUAAUUAUUUACAAAAUUUUAACACUAACCAAACAAUGCAGAUCUCCGGGAUGAUUAAAGGCAGCAUUUGAUGACCGCAGACAUUGUUACAAGGACAUGGUGAGUCCAACAGAGGAUUGAGCAUCA
B9: chr20:187888:188118:-|CDS|ENSG00000185982|control|control|control (ssRNA)
RNA: GGGAGUUCUACAGUCCGACGAUCCUUCAAUAAAGUAACAGGCUAUUGCAGGAAGAAAUGCAAGGUAGGAGAAAGAUAUGAAAUAGGAUGUCUAAGUGGGAAAUUAUGUUGUGCUAAUGAUGAAGAAGAGAAAAAACAUGUGUCCAACAGAGGAUUGAGCAUCA
B10: chr10:74120044:74120145:+|3pUTR|ENSG00000035403|msi1|FALSE|unique (ssRNA)
RNA: GGGAGUUCUACAGUCCGACGAUCAAAAAAAAUCCCUGAAUGAUGAUUAGAGACAUCACCGCUAAAAAACUACAUUUAUAAGCUAGGAUUUGUUAUAUGCAAAUAUUUUCUGCCUCUUCUUUUGUUCUGUUUAAAACAAUAAAACAACAGAGGAUUGAGCAUCA
B11: chr17:3662948:3663056:-|3pUTR|ENSG00000213977|unk|total|mutant (ssRNA)
RNA: GGGAGUUCUACAGUCCGACGAUCAGUUUGAUACAAAAUGUUUUUAUCGUACUCUUUGGAGAUGCCCAUUCUACUUUUGAAUUCCGCUUUUACUAAUUCGCAUCUGGAAGCUCAGCAAGUGCACAAGCCUUACUUUGGUUACCGCAACAGAGGAUUGAGCAUCA
B12: chr17:63354981:63355093:+|CDS|ENSG00000170921|unk|FALSE|bound_elsewhere (ssRNA)
RNA: GGGAGUUCUACAGUCCGACGAUCCAGUCAAGGGUCCUAUCUAUAUCUGAAACUUACAUUUGACCUCAUAGAGAAAGGCUAUCUAGUGUUAAAGAGCUCUAGCUACAAAGUAGUUCCUGUUUCGCUCUCAGAGGUUUAUUUACUCAACAGAGGAUUGAGCAUCA
B13: ENSG00000151892:stop:overlap|stop_codon|ENSG00000151892|stop_codon|NA|stop_codon (ssRNA)
RNA: GGGAGUUCUACAGUCCGACGAUCCACUGCUGGUCCUGGUGGUAACCGCUCUGUCCACCCUAUUAUCUUUAACAGAAACAUCAUAGCUGCAUUAAAAAAAUACAAUAUGGACAUGUAAAAAGACAAAAACCAAGUUAUCUGUUUCAACAGAGGAUUGAGCAUCA
B14: ENSG00000107863:be:win_5551|CDS|ENSG00000107863|bound_else_gene|NA|bound_elsewhere_windowed (ssRNA)
RNA: GGGAGUUCUACAGUCCGACGAUCGACUGGCUGGCCAGGGAACGCCUACGCACCAGUACCUCUGACCUUAGCAGAGGAGAAAUCGGAGAUCCCCAGACAGAGAACCCAAGCACACGAGAAAUAGCCACGACCGACACACCUUUGCAACAGAGGAUUGAGCAUCA
B15: chr4:86814747:86814848:+|3pUTR|ENSG00000163629|unk|FALSE|unique (ssRNA)
RNA: B8 RNA with C83U, C84A, C112U, C113A
B16: ENSG00000181035:stop:overlap|stop_codon|ENSG00000181035|stop_codon|NA|stop_codon (ssRNA)
RNA: GGGAGUUCUACAGUCCGACGAUCUGGGCAUCAGCUUCACCACCUUCGACCUCAUGCAGAUCCUGCUGCGGCACCUGCAGAGCUAGGGGACCCUGAGCUGCUCUCAGGACGGUGGACCGGUGACCCCUUUGUAUUCUGGGCCCACAACAGAGGAUUGAGCAUCA
B17: ENSG00000104805:stop:overlap|stop_codon|ENSG00000104805|stop_codon|NA|stop_codon (ssRNA)
RNA: GGGAGUUCUACAGUCCGACGAUCAGUUGAAGGAGGUGUGGGAGGAGCUGGAUGGACUGGACCCCAACAGCAUCCCAAAGUGCUAGGAUUACAGGCGUGAGUCACUGCGCCCGGCCUCGAAAGCCCUUUCUCUAUGGUGGAUCACAACAGAGGAUUGAGCAUCA
B18: ENSG00000198589:be:win_3201|CDS|ENSG00000198589|bound_else_gene|NA|bound_elsewhere_windowed (ssRNA)
RNA: GGGAGUUCUACAGUCCGACGAUCAACUGGCAAAGAUUCAAUGACUGUCAGUGAAGUAACUGCUUCUAUAAGUUCUCCUUCAGAAGAGGAUGCCUCAGAGAUGCCAGAAUUCUUGGAUAAAUCUAUAGUAGAGGAAGAGGAAGACAACAGAGGAUUGAGCAUCA
B19: chr2:10440579:10440691:-|3pUTR|ENSG00000115758|unk|FALSE|unique (ssRNA)
RNA: GGGAGUUCUACAGUCCGACGAUCUAACUGCAAGUUUAGCUUGAAUUAAGGGAUUUGGGGGGACCAUGUAACUUAAUUACUGCUAGUUUUGAAAUGUCUUUGUAAGAGUAGGGUCGCCAUGAUGCAGCCAUAUGGAAGACUAGGCAACAGAGGAUUGAGCAUCA
B20: chr2:88557131:88557241:-|3pUTR|ENSG00000172071|msi1|total|mutant (ssRNA)
RNA: GGGAGUUCUACAGUCCGACGAUCGAGGACAAGCCGCACAAACUGUAUAACGGUUUAUGUCCGCCGUUUUACCGUCCUAUUUGCCGCAUUCAACCGCUUUAUUCCUCCGAUGGUUCCCGGGUGGGUUUACAGCUUUUUGUACUUCAACAGAGGAUUGAGCAUCA
B21: chr12:18688087:18688218:-|CDS|ENSG00000139151|control|control|control (ssRNA)
RNA: GGGAGUUCUACAGUCCGACGAUCUGGUAUCCAGUUGCCUCUUACUCAUUCAUCAUCUAACAAAGGUGAUUCAUUAGUAAUUAUAGAAGUUUUUGGUGUUCCAAAUGAUCAAAUGAAGCAGCAGACUCGUGUAAUUAAAAAAAACAACAGAGGAUUGAGCAUCA
B22: chr10:78022286:78022401:-|CDS|ENSG00000148606|unk|FALSE|unique (ssRNA)
RNA: GGGAGUUCUACAGUCCGACGAUCAACAUAGUAUCUCCAUUUCUGCCUUUCUUCGUUUCCAUAGGAAAACUUGAAUCCCUUAGUAGUUCUGAAUUUAUUUAAACGAAUCCCAGCUGAAGAUGUUCCUCUACUUCUGAUGAACCCCAACAGAGGAUUGAGCAUCA

Substitutions are numbered along the chain they refer to. Some of the results follow.

For the test, the target named is T1, UNK ZnF1-6 (called full-length). In words: nsRBNS (natural sequence RNA bind-n-seq); RBNS binding buffer (assumed for nsRBNS): 25 mM Tris pH 7.5, 150 mM KCl, 3 mM MgCl2, 0.01% Triton X-100, 500 ug/ml BSA, 20 U/ml SUPERase-In, 4 C; UNK is unkempt and MSI1 is Musashi-1; names of the RNAs are library labels; protein concentration not given here; high values mean tight binding.
In turn, B1 had a binding signal of 0.394 enrichment R.

B2: the binding signal came out at 2.09 enrichment R. The molecule B3 yielded a binding signal of 2.32 enrichment R. On to B4, for which the binding signal came to 3.36 enrichment R. In the case of B5, the binding signal was 1.88 enrichment R.

For the molecule B6, the binding signal was 0.274 enrichment R. For the molecule B7, the binding signal came out at 4.63 enrichment R. In the case of B8, the binding signal amounted to 5.91 enrichment R. Take B9: the binding signal was found to be 0.651 enrichment R. B10: the binding signal came out at 1.24 enrichment R.

For the molecule B11, the binding signal came to 0.437 enrichment R. Molecule B12 gave a binding signal of 0.385 enrichment R. B13 displayed a binding signal of 0.417 enrichment R. To B14 belongs 0.902 enrichment R; to B15, 4.37 enrichment R; to B16, 1.2 enrichment R. In the case of B17, the binding signal amounted to 0.682 enrichment R. B18 yielded a binding signal of 0.614 enrichment R.

Consider B19, for which the binding signal worked out at 1.12 enrichment R.

Turning to B20, the binding signal was found to be 0.471 enrichment R. With B21 the figure was 0.777 enrichment R.

B22: the binding signal was 4.02 enrichment R.
